Hit rate of the full screen: of about 150,000 compounds, about 540 (0.36%) showed an effect of 50% or more. The list shows a part of the results.
test system: Plasmodium falciparum; test: Primary screen in NF54 nanoGlo assay, in single point, at 2uM, 72h; a lower Z score goes with more inhibition; format: functional, Erythrocyte; conditions: timepoint 72 hour

Structure (SMILES)	% Inhibition [%]	Z score
CCn1cc(CN2Cc3nc(C)[nH]c(=O)c3C2)cc1C#N	5	-0.85
CC(C)c1cccc2c1CCN(C(=O)C1C[C@H]3C[C@@H](N)[C@H]3C1)C2 (stereo not given in full)	-9	1.71
Cc1ccc(-n2cccn2)cc1NC(=O)N1CCCC1C1CCCO1 (stereo not given)	-8	0.96
CCn1cnnc1CN(C)Cc1cc2n(n1)CCCN(C[C@H]1CCCO1)C2	-5	0.88
CC(C)(C)OC(=O)N[C@@H]1CCCN(C(=O)c2cccc3[nH]ccc23)C1	-2	0.25
CCCS(=O)(=O)N1CCC[C@H](n2c(C)cnc2C2CC2)C1	-6	0.76
Cc1ccc(S(=O)(=O)N2CCC3(CC2)NC(=O)c2ccccc2N3)cc1C	-13	1.28
Cc1cccc(N2CCN(C(=O)c3cc4ccccn4n3)CC2)c1C	-7	0.95
Cc1ccc([C@H]2NS(=O)(=O)NC2=N)cc1	-5	0.98
CCCN1CCN(c2ncc(F)c(NC)n2)C[C@@H](O)C1	-5	0.85
O=C(Nc1ccon1)c1cc(S(=O)(=O)N2CCCCC2)ccc1F	-3	0.31
CC(C)(C)NC(=O)Cn1nnc(-c2ccc3c(c2)OCO3)n1	3	-0.3
CCc1cccc2c([C@H](CC(=O)NCc3ccco3)c3ccc(OCc4ccccc4)cc3)c[nH]c12	-9	1.02
Cc1cnc(NC[C@H]2CCCCS2(=O)=O)nc1C	-17	2.12
Cc1cnn(CCN[C@@H](C)C(=O)NCC(F)(F)F)c1	6	-0.82
O=C(Nc1ccc2c(c1)OCO2)N1CCO[C@H](c2cccnc2)C1	-9	1.36
Fc1ccc(CN[C@@H](Cc2ccc(Cl)cc2)c2ccccn2)nc1	-10	1.51
COCCN1CCN(C2CCN(c3ccc(-n4cccn4)cc3)CC2)CC1	-2	0.25
COc1ccccc1C1c2[nH]c3ccccc3c2C[C@H]2C(=O)N(CCc3ccc(F)cc3)CC(=O)N12 (stereo not given in full)	6	-0.71
CCC(C)(NC(=O)C1CCCC(C(=O)O)C1)c1nc(C)cs1 (stereo not given)	0	-0.02
O=C(NCCNc1ncccn1)c1ccccn1	-10	1.58
Cc1ccc(C(=O)N2CCCN(c3cc(=O)n(C)c(=O)n3C)CC2)cc1F	-4	0.64

Structure (SMILES)	% Inhibition [%]	Z score
COc1ccnc(CN(C)Cc2cnn(C(C)C)c2)c1OC	-7	0.98
CCOc1cccc(CNC(=O)[C@@H]2CCN(C)S2(=O)=O)c1	-31	3.35
CS(=O)(=O)CC1CCCCN1C(=O)CC1C=CCCC1 (stereo not given)	-2	0.31
O=C(N[C@H](c1cnc2ccccc2c1)C1CC(O)C1)[C@H]1CC[C@@H](O)CC1 (stereo not given in full)	-5	0.45
Cc1cnc(CCN(C)Cc2nc(-c3cccs3)n[nH]2)s1	-2	0.23
Cc1cc2c(c(=O)n(-c3ccc(F)cc3)c(=O)n2CC(=O)Nc2ccccc2Cl)n1C	-6	0.57
COc1ccc(-c2c(-c3ccccc3)ncn2CCN2CCCC2=O)c(OC)c1	-3	0.5
CC(=O)N1C[C@H]2CC[C@@H](C1)N(Cc1cnc(-c3ccc(Cl)cc3)nc1)C2	-8	1.24
CN1CC(c2nc(-c3cccc(Cl)c3)no2)C(C(F)(F)F)C1 (stereo not given)	-2	0.36
CCn1cc(CCn2ncc(C(F)(F)F)cc2=O)cn1	-8	0.98
CCCCS(=O)(=O)N1CC[C@H](O)[C@@H](O)C1	-2	0.32
COCc1ccc(C(=O)N2CC3CCCC3C2)o1 (stereo not given)	-14	1.82
CCCc1csc(NC(=O)NC[C@H](O)c2ccsc2)n1	-10	1.49
NC(=O)CO[C@@H]1CO[C@H]2[C@@H]1OC[C@@H]2NC(=O)c1cccs1	29	-3.26
CC1C(O)CC2CCC1N2C(C(=O)O)c1ccc(F)cc1 (stereo not given)	-4	0.46
COC[C@H](C)NC(=O)CCc1c(C)noc1C	1	-0.12
CN(Cc1c[nH]nc1C(C)(C)C)[C@@H]1COC[C@H]1O	-3	0.37
CN(C)CCc1nnc(NC(=O)Cc2cccnc2)s1	-7	1.31
CCN(CC)S(=O)(=O)c1ccc(N2CCOCC2)c(NC(=O)[C@@H]2CCCc3ccccc32)c1	-2	0.35
CCOC(=O)C1(NCCn2cccn2)CCCCC1	-7	1.04
COc1ccc(-c2cn3c(n2)CCC3)cc1	-5	0.43
CC(C)CN=C1NC[C@H]2CN(C(=O)OC(C)(C)C)CCN12	0	-0.06

Structure (SMILES)	% Inhibition [%]	Z score
Cc1ccc(CN2CCCn3nc(C(=O)NCCC(=O)NCCN4CCOCC4)cc3C2=O)cc1	-3	0.43
Cc1cc(NC(=O)C(C)(C)S(C)(=O)=O)ccc1N1CCCC1	-7	1.1
CCc1nc(CNc2cc(C(=O)OC)cc(F)c2C)n[nH]1	-9	1.4
O=C(Cn1cnc2ccccc21)N1CCCC[C@@H]1CCn1ccnc1	-3	0.48
CN1C(=O)[C@](C)(C(=O)N2CCOCC2)Oc2cccnc21	-1	0.13
Cc1ccc(CC#N)cc1Br	-7	0.69
CCN(CC)S(=O)(=O)NC(=O)CCc1ccc(Cl)s1	-5	0.57
Cc1cccc(Oc2nc(N3CCCCC3)nc3c2CN(C(=O)OCc2ccccc2)CC3)c1	39	-3.78
CS(=O)(=O)C1(C(=O)N(Cc2ccccc2)C2CC2)CCCC1	8	-1.62
Cc1cc(C)cc(NC(=O)C23CCC(C)(C(=O)C2=O)C3(C)C)c1 (stereo not given)	9	-1.39
Cc1ccc(OCC(=O)NCCCN(Cc2cccnc2)C(=O)OC(C)(C)C)c(C)c1	-1	0.12
Cn1cc(C(=O)N2C[C@@H]3CS(=O)(=O)C[C@@H]3C2)c(-c2ccoc2)n1	3	-0.33
CC(C)Cc1nc(C(=O)N[C@H]2Cc3ccccc3N(C)C2=O)cs1	6	-0.9
Cc1nn(C)c(C)c1C(=O)N1CCC(OCc2ncon2)CC1	-3	0.33
CCC(C)C1NC2(CCN(C(=O)c3ccc(C)cc3)CC2)N(C2CCN(Cc3ccccc3)CC2)C1=O (stereo not given)	2	-0.25
COc1ccc(CCN2C(=O)COCC2=O)cc1OC	36	-4.12
Cc1noc(C)c1CCC(=O)N[C@H]1CCc2c[nH]nc2C1	0	-0.08
CCn1cnnc1NC(=O)c1ccoc1C(C)C	-4	0.64
Cn1cnc(CNC(=O)[C@@H]2CCCC[C@@H]2N2CCCC2=O)c1	-9	1.06
Cc1cccc(NC(=O)[C@@H]2CCCN2CCCn2ccnc2C)n1	-5	0.64
Cc1nn(C(C)C)cc1-c1cccc(C(=O)N[C@@H](CC(C)C)C(N)=O)c1	-8	1.06
OC1CCCC(CNC(c2ccc(Br)cc2)C2CC2)C1 (stereo not given)	1	-0.12

Structure (SMILES)	% Inhibition [%]	Z score
CCOC(=O)N1CCN(C(=O)c2cn3c(n2)CC[C@H](c2ccccc2)C3)CC1	-10	1.01
C[C@@H](C1CC1)N(C)S(=O)(=O)Cc1ccc2nonc2c1	-9	1.49
COCc1nc([C@H]2CCOC2)cc(N(C)Cc2cc(C3CC3)[nH]n2)n1	3	-0.64
CNc1nc([C@H]2CCOC2)cc(N2CCN(Cc3nccn3C)CC2)n1	-7	0.8
COc1ccccc1C1CN(C(=O)c2ccc(C)cc2)CC1C(=O)N1CCOCC1 (stereo not given)	-21	1.85
O=C(Nc1ccc(Cl)cc1)c1ccc2c3c(cccc13)CC2	5	-0.63
Cc1noc(C)c1C(=O)Nc1ccc2c(c1)N(C)S(=O)(=O)N2C	6	-0.72
Cc1cc(C)cc(S(=O)(=O)N2CCN=C2N2CCN(C)CC2)c1	-9	1.02
CC(O)C1CCCN(C(=O)C2Cc3ccccc3CN2S(=O)(=O)c2cccs2)C1 (stereo not given)	-11	1.07
CNC(=O)[C@H](Cc1ccccc1)n1cc(C(=O)OC)c2nnc(O)c-2c1	-2	0.28
CCCN1CCC[C@H]1CNC(=O)c1nc[nH]c1C(F)(F)F	0	0
CCc1sc(C(=O)NCc2cccnc2N2CCOCC2)cc1C	-13	1.74
Cc1occc1C(=O)N[C@H]1CCCc2c1cnn2-c1ccc(C(C)(C)C)cc1	-11	1.36
CC1=CCN(C(=O)Nc2ccc(F)cc2)CC1	23	-2.59
COCC1(C(=O)N2CCNC[C@@H]2C)CCC1	5	-0.85
COc1cc(NC(=O)c2ccc3c(c2)OCO3)ccc1N1CCCCC1=O	-9	1.44
O=C(c1c[nH]nc1-c1ccoc1)N1CCOCC(F)(F)C1	-2	0.43
COc1cccc2c(N3CC[C@H](C4CCOCC4)C3)nccc12	-3	0.5
COc1ccc2c(c1)-c1nc(-n3ncc(C(=O)N4CCC(C(N)=O)CC4)c3C3CC3)ncc1CC2	-5	0.7

— ChEMBL document CHEMBL4888484, “Replenishing the malaria drug discovery pipeline: Screening and hit evaluation of the MMV Hit Generation Library 1 (HGL1) against asexual blood stage Plasmodium falciparum ,using a nano luciferase reporter read-out” (2022)
